Measured values published in PubChem BioAssay AID463173 (ICCB-Longwood Screening Facility, Harvard Medical School, 2010).
About 1,700 (3.3%) of roughly 52,000 compounds were called active. Rule as the data show it: active = survival mostly below about 52% (no sharp cut-off); inactive = mostly above about 56%. Some of the results follow.

tested on: Wild type; experiment: S. aureus survival, RN4220 and DeltatarO strains – OD600, teichoic acid synthesis inhibitors, primary screen (AID 463173); conditions: S. aureus RN4220 wild type/DeltatarO growth, OD600, 18 h, stronger effect = lower value, screened at 18.75 µg/mL (by protocol)

Row | Compound | survival
1 | CCCC(=O)Oc1c(Sc2ccc(Cl)cc2)c(C)nn1-c1ccccc1 | inactive: 30%
2 | CCOc1nc(NC(=O)NS(=O)(=O)Oc2ccc(Cl)cc2)nc(-c2ccccc2)n1 | inactive: 78%
3 | Cc1ccc(NC(=O)C(Cc2ccccc2)NS(=O)(=O)c2ccc3c(c2)c(=O)n(C)c(=O)n3C)cc1 (stereo not given) | inactive: 71%
4 | CCN(C(=O)c1cc(S(=O)(=O)N2CCOCC2)cn1C)c1ccc(OC)cc1 | inactive: 86%
5 | CCOc1ccc(C(C)C)cc1S(=O)(=O)Nc1cccc(-c2ccc(N3CCOCC3)nn2)c1 | inactive: 112%
6 | Cn1cc(C(=O)O)c(=O)c2cc(S(=O)(=O)N3CCCCC3)ccc21 | inactive: 81%
7 | Cc1ccc(CN2C(=O)c3ccccc3S(=O)(=O)c3ccc(C(=O)OCC4CCCO4)cc32)cc1 (stereo not given) | inactive: 65%
8 | CC(C)(C)c1ccc(OCC(=O)N(Cc2ccco2)Cc2ccccc2F)cc1 | inactive: 76%
9 | CCC(C)NC(=S)N1CCN(C)CC1 (stereo not given) | inactive: 89%
10 | Cc1ccc(-c2ccc(C#N)c(=O)n2CC(=O)N(C)C)cc1 | inactive: 105%
11 | Cc1cccn2c(=O)c3cc(C(=O)NCCc4ccc(S(N)(=O)=O)cc4)n(C)c3nc12 | inactive: 96%
12 | COc1ccc(OC)c(C2C(C(N)=O)=C(C)Nc3nc(-c4cccc(Cl)c4)nn32)c1 (stereo not given) | inactive: 130%
13 | Cc1ccc2[nH]c(=O)c(CN(Cc3nnnn3CCc3ccccc3)C3CCCC3)cc2c1 | inactive: 109%
14 | Cc1ccc2c(c1)cc1c(=O)n(CC(=O)NCc3ccco3)nc(C)n12 | inactive: 79%
15 | COc1cc(OC)cc(-c2nnc(SCC(=O)N3CCC(C)CC3)o2)c1 | inactive: 79%
16 | COc1ccc(CCNC(=O)CCn2c(=O)c3ccccc3n(CC(=O)Nc3cccc(C)c3)c2=O)cc1OC | inactive: 100%
17 | CC(=O)c1ccc(NC(=O)Cn2c(-n3nc(C)cc3C)nc(C)cc2=O)cc1 | inactive: 83%
18 | COc1cc(C(=O)Nc2cccc(OCc3cc(=O)n4c(C)csc4n3)c2)cc(OC)c1OC | inactive: 94%
19 | Cc1nn2c(=O)cc(COC(=O)c3ccccc3NC(=O)C(C)C)nc2s1 | inactive: 74%
20 | COc1cccc(-n2cc(C(=O)Oc3ccc(F)cc3)c3ccccc3c2=O)c1 | inactive: 73%
21 | CCCC(=Nc1ccccc1O)C1=C(O)CC(CC(C)SCC)CC1=O (stereo not given) | inactive: 108%
22 | COCCn1nnnc1CN1CCC(NC(=O)Nc2cccc(OC)c2)CC1 | inactive: 118%
23 | COc1ccc(S(=O)(=O)N2CCC(c3nnc(-c4ccccc4C)o3)CC2)c(OC)c1 | inactive: 91%

Row | Compound | survival
24 | Cc1noc2ncnc(N3CCCC(C(=O)NCCC(C)C)C3)c12 (stereo not given) | inactive: 78%
25 | CCOC(=O)c1ccc(N=c2sc(C(=O)OC)cc(=O)n2C2CC2)cc1 | inactive: 113%
26 | Cc1ccc(S(=O)(=O)c2c(Nc3ccccc3)sc(C(=O)c3ccc4c(c3)OCO4)c2N)cc1 | inactive: 84%
27 | O=C(c1cccs1)N1CCCC(c2nc3c(nnn3Cc3ccc(F)cc3)c(=O)[nH]2)C1 (stereo not given) | inactive: 119%
28 | COc1ccc(OC)c(NC(=O)Cn2ccn(-c3ccc(F)cc3)c(=O)c2=O)c1 | inactive: 84%
29 | COc1ccc(-c2nc(SCC(=O)NCC3CCCO3)c(-c3ccc(Cl)cc3)[nH]2)cc1 (stereo not given) | inactive: 83%
30 | Cc1c(Cl)ccc2sc(NC(=O)c3ccc(S(=O)(=O)N4CCCC4)cc3)nc12 | inactive: 78%
31 | O=C(NCc1ccc2c(c1)CCN2C(=O)c1ccncc1)c1ccccc1Br | inactive: 75%
32 | COc1ccc(C)cc1S(=O)(=O)Nc1cccc(-c2ccc(N3CCCC3)nn2)c1 | inactive: 77%
33 | CCN1C(=O)C(O)(C(C)C(=O)c2ccccc2)c2ccccc21 (stereo not given) | inactive: 111%
34 | Cc1ccc2ncc(C(=O)Nc3cccc(C(F)(F)F)c3)c(=O)n2c1 | inactive: 122%
35 | CC(C)c1ccc(NC(=O)c2cc3c(=O)oc4ccccc4c3s2)cc1 | inactive: 87%
36 | COc1ccccc1NC(=O)c1sc2cccc(Cl)c2c1Cl | inactive: 71%
37 | CCOc1ccc(CCNC(=O)c2cc3c(=O)n(C)c4ccccc4c3s2)cc1OCC | inactive: 66%
38 | CCc1ccc(OCC(=O)NCC(c2ccc(Cl)cc2)N2CCOCC2)cc1 (stereo not given) | inactive: 106%
39 | CCOC(=O)c1ccc2ncc(C(=O)OCC)c(NCCc3ccc(OC)c(OC)c3)c2c1 | inactive: 64%
40 | O=C(c1cccnc1)N1CCC(Cc2ccccc2)CC1 | inactive: 115%
41 | CCCC12CN3CC(C)(CN(C1)C3c1ccc(CC)cc1)C2=O (stereo not given) | inactive: 96%
42 | Cc1cccc(N2CCN(C(c3ccc(F)cc3)c3nnc(-c4ccccc4)o3)CC2)c1C (stereo not given) | inactive: 28%
43 | COc1cccc(N2CCN(C(=O)c3cnc4c(C)cccn4c3=O)CC2)c1 | inactive: 91%
44 | O=C(CC(c1cccs1)N1Cc2ccccc2C1=O)Nc1ccccc1 (stereo not given) | inactive: 82%
45 | CCN1CCN(C(=O)Cn2ncc3c4ccccc4n(Cc4ccccc4F)c3c2=O)CC1 | inactive: 82%
46 | O=c1cc2nc(-c3ccccc3)nc(SCc3cccc(Br)c3)n2[nH]1 | inactive: 73%

Row | Compound | survival
47 | Cc1cccc(NC(=O)CSc2nc3ccccc3c3nc(CCn4cncc4C)nn23)c1 | inactive: 83%
48 | COc1ccc(N2CCN(C(CNC(=O)C(=O)NCc3ccc(C)cc3)c3cccnc3)CC2)cc1 (stereo not given) | inactive: 83%
49 | CC(C)Oc1ccc(CNC(=O)C2CCN(C(=O)N3CCOc4ccc(Cl)cc43)CC2)cc1 | inactive: 79%
50 | CCC(c1nnnn1C(C)(C)CC)N(Cc1cc2ccc(C)cc2[nH]c1=O)C1CCCC1 (stereo not given) | inactive: 105%
51 | Cc1ccccc1-c1nc(NC(=O)CSc2ncnc3sc4c(c23)CCCC4)ns1 | inactive: 88%
52 | CCNC(=O)c1c(NC(=O)c2cc(=O)c3ccc(C)c(C)c3o2)sc2c1CCCC2 | inactive: 85%
53 | Cc1cccc(N2CCN(S(=O)(=O)c3ccc(F)c(C(=O)Nc4cccc(Cl)c4C)c3)CC2C)c1 (stereo not given) | inactive: 100%
54 | CCCC1C2CN(C(C)C)CC=C2C(C#N)=C(N)C1(C#N)C#N (stereo not given) | inactive: 107%
55 | Cc1ccc(Cl)cc1N1CCN(C(=O)C(C)n2ncn3cccc3c2=O)CC1 (stereo not given) | inactive: 83%
56 | CCCCN(CCCC)C(=O)c1cc2c(=O)n3ccccc3nc2s1 | inactive: 61%
57 | CC1CCCCN1S(=O)(=O)c1ccc(NC(=O)C2COc3ccccc3O2)cc1 (stereo not given) | inactive: 125%
58 | O=C(NC1CC2CCC(C1)N2C(=O)NC1CCCCC1)NC12CC3CC(CC(C3)C1)C2 (stereo not given) | inactive: 113%
59 | Cc1nn(-c2ccccc2)c2c1cc1c(=O)[nH]c(=O)nc-1n2-c1cccc(C(F)(F)F)c1 | inactive: 116%
60 | COc1ccc(Nc2ncnc3c2cnn3C)c(OC)c1 | inactive: 82%
61 | O=C(NCCSc1c(-c2ccc(Cl)cc2)[nH]c2ccccc12)c1ccc(S(=O)(=O)N2CCOCC2)cc1 | inactive: 89%
62 | O=S(=O)(Nc1ccc(-c2ccc(N3CCCCCC3)nn2)cc1)c1ccc(C(F)(F)F)cc1 | inactive: 73%
63 | O=C(CN1CCN(Cc2ccc(F)cc2)C1=O)NCc1ccccc1 | inactive: 88%
64 | Cc1ccccc1SCC(=O)O | inactive: 106%
65 | Cc1ccc2c(c1)-c1onc(C(=O)N3CCN(c4cccc(C)c4C)CC3)c1CO2 | inactive: 87%
66 | Cc1cc(C)c(S(=O)(=O)NCC(c2ccco2)N2CCN(c3ccccc3)CC2)c(C)c1 (stereo not given) | inactive: 85%
67 | Cc1ccc(-n2nc3c(=O)n(CCCC(=O)NCc4ccc(F)cc4)nc(C)c3c2C)cc1 | inactive: 77%
68 | COC(=O)c1c(NC(=O)c2c(OC)cccc2OC)sc2c1CCCC2 | active: 3%
69 | CC1CCCCN1S(=O)(=O)c1ccc2[nH]c(=O)cc(C(=O)NCCc3ccc(Cl)cc3)c2c1 (stereo not given) | inactive: 63%

Row | Compound | survival
70 | CC(C)Cc1cc(C(=O)O)nc(=O)[nH]1 | inactive: 109%
71 | O=C(Nc1ccccn1)c1ccccc1O | inactive: 110%
72 | COc1cccc(NC(=O)c2oc3ccc(S(=O)(=O)N4CCOCC4)cc3c2C)c1 | inactive: 74%
73 | CC(C)OCCCNC(=O)CN1C(=O)CSc2ccc(S(=O)(=O)N3CCOCC3)cc21 | inactive: 71%
74 | C=Cc1ccc(Cn2c(C(=O)OC)cc3sc(C)cc32)cc1 | active: 0%
75 | CCc1ccccc1N1C(=O)CC(N2CCc3ccccc32)C1=O (stereo not given) | inactive: 101%
76 | COc1cc(SC)ccc1C(=O)N1CCCC(C)C1 (stereo not given) | inactive: 88%
77 | CC(=O)c1cccc(Nc2ncnc3c2cnn3-c2cccc(Cl)c2)c1 | inactive: 81%
78 | COc1cccc(NC(=O)CC2Oc3ccccc3NC2=O)c1 (stereo not given) | inactive: 77%
79 | CC(=O)Nc1c(C(=O)Nc2ccccc2F)oc2ccccc12 | inactive: 128%
80 | COC(=O)C1(C)NC(c2ccccc2C)C2C(=O)N(C)C(=O)C21 (stereo not given) | inactive: 98%
81 | CCc1ccc(Nc2nc3c(S(=O)(=O)c4cccc(Cl)c4)nnn3c3ccsc23)cc1 | inactive: 96%
82 | CNc1nc(Oc2ccc(=O)[nH]n2)nc(N2CCOCC2)n1 | inactive: 72%
83 | COc1ccc(-n2cc(C(=O)Nc3ccccc3C#N)c3ccccc3c2=O)cc1 | inactive: 109%
84 | O=C(CSc1nnc(Cc2ccccc2)n1Cc1ccccc1)NCc1ccco1 | inactive: 100%
85 | COc1cccc(-n2cc(C(=O)Nc3ccccc3C(N)=O)c3ccccc3c2=O)c1 | inactive: 80%
86 | Cc1nc(SCCOc2ccc(Cl)cc2)[nH]c(=O)c1Cc1ccccc1 | inactive: 84%
87 | CC(C)(C)c1ccc(S(=O)(=O)N2CCC(c3ccncc3)CC2)cc1 | inactive: 120%
88 | CCOc1ccc(NC(=O)Cn2c(=O)n(Cc3ccccc3)c(=O)c3c4c(sc32)CN(C(C)=O)CC4)cc1 | inactive: 88%
89 | O=C(Nc1cccnc1)C1CC(c2ccccc2O)=NO1 (stereo not given) | inactive: 120%
90 | Cc1ccc(NC(=O)CN2C(=O)COc3ccc(S(=O)(=O)N4CCOCC4)cc32)c(Cl)c1 | inactive: 98%
